# Experimental data published in PubChem BioAssay AID2100 (National Center for Advancing Translational Sciences (NCATS), 2009).
# Out of some 300,000 compounds screened, about 1,200 (0.4%) were called active. The inconclusive results got no clear call from the source; some entries with a clear call stand among them for comparison. The call rests on the fitted dose curve; in most records, active means well fitted inhibition curve with a large enough effect; inconclusive means small, poorly fitted or top-dose-only effect, or another doubt; inactive means no such curve, though single readings can be large or run the other way. Potencies beside an inconclusive call are fits to weak or partial responses and may not hold up.
# Target: Lysosomal alpha-glucosidase (Homo sapiens) (UniProt P10253)
# Assay: qHTS Assay for Inhibitors and Activators of Human alpha-Glucosidase Cleavage of Glycogen;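 on activity change, negative = inhibition: 0% = full enzyme reaction and -100% = no-enzyme basal signal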
# Conditions: recombinant GAA, glycogen substrate, Amplex Red glucose oxidase fluorescence; activity change, negative = inhibition: at 76.4 µM (top of the series) unless noted
# How it was run: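 Natural-substrate format: glycogen cleavage by 4 nM human enzyme, glucose read by Amplex Red coupling (Ex 573, Em 610 nm). Normalized to enzyme and no-enzyme controls.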
# Potency means the concentration at half of the fitted maximal effect.
Structure (SMILES),Potency,"activity change, negative = inhibition"
CSc1ccc(-c2nc3cccc(C)n3c2Nc2ccc(Cl)cc2)cc1,active: 5.62 µM,
c1ccc(CCn2nnnc2C(c2cccnc2)N2CCN(c3ccccc3)CC2)cc1 (stereo unspecified),inactive,
CCOC(=O)c1c(NC(C)=O)sc(/C(C)=N/Nc2ccc(C(=O)O)cc2)c1C,"inconclusive: 11.2 µM [inhibitor, single point]",
CSc1nc(O)c(C(c2ccc(O)cc2)c2c(O)nc(SC)[nH]c2=O)c(=O)[nH]1,"inconclusive: 50.1 µM [inhibitor, single point]",
Cc1ccc(CNC(=O)CN(c2ccc(Cl)cc2)S(C)(=O)=O)cc1,inactive,
Cn1cccc1CC(=O)NNC(=S)Nc1ccc(Cl)cc1Cl,"inconclusive: 31.6 µM [inhibitor, partial curve]",
O=S(=O)(O)c1cccc(N=Nc2c(O)ccc3ccccc23)c1,"inconclusive: 50.1 µM [inhibitor, single point]",
Oc1ccc(NCc2ccccc2OCc2ccc(Cl)cc2)cc1,"inconclusive: 39.8 µM [activator, single point]",
O=C(CN1CCOCC1)NNc1nc(-c2ccccc2)c2cc(Br)ccc2n1,"inconclusive: 8.84 µM [inhibitor, full curve, poor fit]",
Cc1ccc(NC(=O)CC2Nc3ccccc3NC2=O)cc1C (stereo unspecified),"inconclusive: 4.47 µM [inhibitor, full curve]",
CCOc1ccc(-n2c(=O)c3c(C)c(C)sc3n(CC(=O)NCCc3ccccc3)c2=O)cc1,inactive,
S=C(Nc1ccc(Nc2ccccc2)cc1)Nc1ccccn1,"inconclusive: 20 µM [inhibitor, partial curve]",
O=c1oc2ccccc2c(N2CCN(c3ccccc3F)CC2)c1CN1CCCC1,inactive,
C(=N\N1CCN(C2c3ccccc3-c3ccccc32)CC1)/c1ccncc1,inactive,
COc1cccc(NC(=S)N/N=C2\CC(C)(C)Oc3ccc(O)cc32)c1,"inconclusive: 35.5 µM [inhibitor, single point]",
COc1ccc(/C=N/NC(C)(C)C)c(OC)c1,"inconclusive: 39.8 µM [inhibitor, single point]",
O=C(Oc1ccc(/C=N/Nc2ccccc2)cc1)c1ccccc1,"inconclusive: 25.1 µM [inhibitor, single point]",
c1ccc(C2Oc3ccccc3C3CC(c4cccs4)=NN32)cc1 (stereo unspecified),"inconclusive: 50.1 µM [activator, single point]",
Cc1nc2ccccn2c1C(=O)NN=C1CCN(C)CC1,"inconclusive: 17.8 µM [inhibitor, partial curve]",
N#Cc1c(-n2ncnc2-c2ccc(F)cc2)sc2c1CCCCC2,"inconclusive: 17.8 µM [inhibitor, partial curve]",
Cc1cccc(-n2cnc(C(=O)NNC(=S)Nc3ccccc3)c2)n1,"inconclusive: 35.5 µM [inhibitor, partial curve]",
O=C(NNc1nc2c(F)cccc2s1)C1=COCCO1,"inconclusive: 6.26 µM [inhibitor, full curve]",
COc1ccccc1C(=O)NNC(=S)NC(=O)c1ccco1,"inconclusive: 7.08 µM [inhibitor, partial curve]",
CC1=NN(c2ccc(C(=O)O)c(N)c2)C(=O)C1,"inconclusive: 35.5 µM [inhibitor, single point]",

Structure (SMILES),Potency,"activity change, negative = inhibition"
Nc1cc(S(=O)(=O)c2ccc(O)c(N)c2)ccc1O,active: 7.94 µM,
C(=N\Nc1nc2ccccc2[nH]1)/c1c[nH]c2ccccc12,active: 22.2 µM,
Cc1cc(C)cc(N2C(N)=NC(N)=NC2c2cccc(Cl)c2)c1 (stereo unspecified),inactive,
O=c1nc2s/c(=C\c3ccc(-c4ccccc4[N+](=O)[O-])o3)c(=O)n2nc1-c1ccccc1,inactive,
CCN(CC)c1ccc(/C=N/Nc2ccccc2)c(O)c1,active: 17.6 µM,
C/C(=N\Nc1ccc(Cl)c(C(=O)O)c1)c1cccs1,"inconclusive: 28 µM [inhibitor, partial curve]",
C/C(=N/Nc1nc(-c2ccccc2)cc(-c2ccc(F)cc2)n1)c1cccc(N)c1,"inconclusive: 31.4 µM [inhibitor, single point]",
CCN(CC)C(=O)COc1ccc(/C(C)=N/NC(=O)c2ccccc2O)cc1,"inconclusive: 35.5 µM [inhibitor, single point]",
CCc1cc(-c2[nH]ncc2-c2ccc(OC)cc2)c(O)cc1O,"inconclusive: 14.1 µM [inhibitor, partial curve]",
CCCC[C@]12Cc3cc(OC)c(OC)cc3C(O1)c1c(cc(-c3ccccc3)oc1=O)O2,,inactive: 5.71% [at 15.3 µM]
CC(C)(C)c1ccc(OCC(=O)NCC2(N3CCOCC3)CCCCC2)cc1,inactive,
Cc1ccc(N2NC3(CCN(C(N)=O)CC3)NC2=O)cc1,"inconclusive: 4.47 µM [inhibitor, full curve]",
CC(C)c1cc(C(=O)NNC(=S)NC2CCCCC2)cs1,"inconclusive: 35.5 µM [inhibitor, partial curve]",
Cc1cc(C)cc(NC(=O)c2ccc([N+](=O)[O-])o2)c1,"inconclusive: 31.6 µM [activator, single point]",
Cc1nc(-c2ccc(Cl)cc2)sc1C(=O)NN,"inconclusive: 28.2 µM [inhibitor, partial curve]",
CCOc1ccccc1CNc1ccc(O)cc1,"inconclusive: 31.6 µM [activator, partial curve]",
CCOC(=O)CSc1nc(N)c(C(=O)Nc2ccc(N(C)C)cc2)s1,"inconclusive: 35.5 µM [inhibitor, single point]",
Nc1ccc(-c2n[nH]c(=O)c3ccccc23)cc1N,active: 17.8 µM,
C/C(=N\N1CCN(C2c3ccccc3-c3ccccc32)CC1)c1ccncc1,active: 28.2 µM,
O=C(O)c1cccc(-c2ccc(/C=N/Nc3nn[nH]n3)o2)c1,active: 1.78 µM,
O=C(CSc1cn(CCNC(=O)c2cccc(C(F)(F)F)c2)c2ccccc12)Nc1ccc2c(c1)OCCO2,active: 35.5 µM,
COc1ccc2cc(CN(CCCN3CCOCC3)Cc3nnnn3C3CCCC3)c(=O)[nH]c2c1,"inconclusive: 31.6 µM [activator, partial curve]",
CCc1cc(C(=O)NNC(=S)NCC2CCCO2)cs1 (stereo unspecified),"inconclusive: 4.97 µM [inhibitor, full curve]",
CN(C)c1ccc(N2CC(C)(C)C2=O)cc1,"inconclusive: 39.8 µM [activator, partial curve]",

Structure (SMILES),Potency,"activity change, negative = inhibition"
O=C(Nc1nc2ccccc2[nH]1)C1CCCO1 (stereo unspecified),inactive,
COc1cc(C(=O)N(Cc2ccc(N(C)C)cc2)CC2CCCO2)cc(OC)c1OC (stereo unspecified),"inconclusive: 25.1 µM [inhibitor, single point]",
CCC(C)NC(=O)C1CCCN(S(=O)(=O)c2ccc3c(c2)CC(C)N3C(C)=O)C1 (stereo unspecified),inactive,
NNc1nc(-c2ccccc2Cl)nc2sc3c(c12)CCCC3,"inconclusive: 17.8 µM [inhibitor, partial curve]",
S=C(NCc1ccccc1)Nc1ccc(Oc2ccccc2)cc1,"inconclusive: 3.98 µM [inhibitor, partial curve, poor fit]",
CC(C)C1N=C2c3ccccc3N=C(SCC(=O)c3ccc(O)c(O)c3)N2C1=O (stereo unspecified),active: 12.5 µM,
CCOC(=O)C1(Cc2cccc(OC)c2)CCN(C2CCOCC2)CC1,"inconclusive: 22.4 µM [inhibitor, partial curve]",
O=C(Nc1ccc2c(c1)CN(Cc1ccccc1O)CC2)C1CCCO1 (stereo unspecified),"inconclusive: 31.6 µM [inhibitor, single point]",
Cc1ccc(S(=O)(=O)NCCOC(=O)Nc2sc(=S)n(C)c2C)cc1,"inconclusive: 31.4 µM [inhibitor, single point]",
CCOc1ccc(OCC)c(S(=O)(=O)NNC(=O)c2c(C)nc3ccccn23)c1,inactive,
COc1ccccc1Cn1c(=S)[nH]c2cc(C(=O)NCC3CCCO3)ccc2c1=O (stereo unspecified),"inconclusive: 5.01 µM [inhibitor, full curve, poor fit]",
CCCC(=O)Nc1nc(C)c(-c2csc(Nc3cc(OC)ccc3OC)n2)s1,"inconclusive: 15.7 µM [inhibitor, partial curve]",
Cc1ccc(CN2C(=O)CCC2C(=O)NCCCN2CCCCC2C)cc1 (stereo unspecified),,inconclusive: 8.42% [activator]
Cc1nc(NNC(=O)c2ccccc2)cc(-c2ccccc2)n1,active: 22.4 µM,
O=C(CCN1C(=O)C2C3C=CC(C3)C2C1=O)NCCN1CCCc2ccccc21 (stereo unspecified),"inconclusive: 9.92 µM [inhibitor, partial curve]",
Cc1ccc2nc(-c3ccc(C)o3)c(Nc3ccc4c(c3)OCCO4)n2c1,active: 6.31 µM,
N#CC12CCCCC1CC1CCCCC1(C#N)N2Cc1ccccn1 (stereo unspecified),,inconclusive: 61.4% [activator]
Clc1cccc(N/N=C/c2ccncc2)c1,"inconclusive: 17.6 µM [inhibitor, partial curve]",
CC(=O)Nc1cccc(-n2cc3c(c2-c2ccccc2Cl)c(=O)n(C)c(=O)n3C)c1,inactive,
COc1ccc(N2CCC(CNC(=S)Nc3c(C)cc(C)cc3C)C2)cc1 (stereo unspecified),"inconclusive: 11.2 µM [inhibitor, full curve, poor fit]",
COc1ccc(S(=O)(=O)Nc2ccc(N3CCOCC3)nc2)cc1,"inconclusive: 15.8 µM [inhibitor, partial curve]",
Cc1c(Cl)cnc(NC(=O)COC(=O)c2ccc3ncsc3c2)c1Cl,"inconclusive: 50.1 µM [inhibitor, single point]",
O=C1CCCC2=C1C(c1ccc3c(c1)OCO3)c1c([nH]n(-c3ccccc3)c1=O)N2 (stereo unspecified),"inconclusive: 35.5 µM [inhibitor, partial curve]",
